# Measured values from publication PMC4336329 (PLoS ONE, 2015).
# In all, about 310,000 compounds went through this assay and about 14,000 (4.5%) showed an effect of 50% or more. The effect is printed as a negative number. The list shows a part of the results.
# Target: human ether-à-go-go-related gene (hERG) potassium channel (human, UniProt Q12809)
# Test: primary screen, population patch clamp on CHO cells stably expressing hERG
# 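Further: peak tail current of the secondary pulse compared with the same well before compound.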
# human ether-à-go-go-related gene (hERG) potassium channel, sequence (Q12809 whole entry, looked up): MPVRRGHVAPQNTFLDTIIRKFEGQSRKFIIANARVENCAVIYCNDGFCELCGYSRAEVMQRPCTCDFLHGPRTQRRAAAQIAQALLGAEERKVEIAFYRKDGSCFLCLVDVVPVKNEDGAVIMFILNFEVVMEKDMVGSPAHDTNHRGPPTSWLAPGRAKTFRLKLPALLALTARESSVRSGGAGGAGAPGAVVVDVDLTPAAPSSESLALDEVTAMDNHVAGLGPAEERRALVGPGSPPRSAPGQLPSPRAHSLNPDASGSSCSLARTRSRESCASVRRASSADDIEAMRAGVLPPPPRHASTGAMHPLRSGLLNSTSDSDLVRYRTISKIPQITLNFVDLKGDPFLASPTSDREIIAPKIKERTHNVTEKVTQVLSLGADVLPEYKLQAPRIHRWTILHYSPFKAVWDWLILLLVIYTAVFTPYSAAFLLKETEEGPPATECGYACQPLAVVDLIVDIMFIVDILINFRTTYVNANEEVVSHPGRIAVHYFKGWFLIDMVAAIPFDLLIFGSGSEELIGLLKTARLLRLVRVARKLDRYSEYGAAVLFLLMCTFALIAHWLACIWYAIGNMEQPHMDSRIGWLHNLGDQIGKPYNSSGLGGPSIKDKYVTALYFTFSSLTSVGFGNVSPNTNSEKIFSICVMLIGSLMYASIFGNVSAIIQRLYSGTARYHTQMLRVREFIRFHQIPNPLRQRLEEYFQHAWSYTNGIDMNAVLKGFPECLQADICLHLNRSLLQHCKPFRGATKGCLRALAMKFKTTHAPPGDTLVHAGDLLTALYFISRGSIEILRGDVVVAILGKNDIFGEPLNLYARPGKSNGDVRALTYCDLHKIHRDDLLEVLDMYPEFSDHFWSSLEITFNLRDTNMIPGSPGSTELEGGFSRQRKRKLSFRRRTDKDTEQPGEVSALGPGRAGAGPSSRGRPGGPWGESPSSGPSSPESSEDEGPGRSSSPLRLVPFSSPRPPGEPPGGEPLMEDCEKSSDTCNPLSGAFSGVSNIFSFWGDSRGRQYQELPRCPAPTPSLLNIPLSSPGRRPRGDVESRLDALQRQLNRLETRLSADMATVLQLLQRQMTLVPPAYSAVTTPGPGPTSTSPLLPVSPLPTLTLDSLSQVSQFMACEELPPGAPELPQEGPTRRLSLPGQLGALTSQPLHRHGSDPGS
row,SMILES,"hERG current change (%, negative = inhibition) at 10uM [%]"
1,CCOc1ccc(S(=O)(=O)N2CCN(C(=O)C3CCC3)CC2)cc1,-5.04
2,C/C(=N\NC(=O)c1ccc(CSc2cccc3cccnc23)cc1)C1CCCCC1,-9.08
3,CCOC(=O)/C(CCCN(CC)CC)=N\O.CI,12.9
4,COc1ccc(-n2nc(C(=O)N3CCCCC3)c(C)c(C#N)c2=O)cc1,22.5
5,Cc1ccc(-n2nnc3c(=O)n(CC(=O)c4ccccc4)cnc32)cc1,-4.76
6,COc1ccc(CCNC(=O)COC(=O)c2cc(=O)c3ccccc3o2)cc1,-1.09
7,COc1ccc(C(C)(C)C)cc1NC(=O)COC(=O)c1nc2nccc(C)n2n1,3.17
8,COc1ccc(NC(=S)N2CCCC(c3nc4ccc(C)cc4[nH]3)C2)cc1 (stereo not shown),-10.5
9,C=CCn1c(C)c(C(C)=O)c(N2CCOCC2)nc1=S,-5.62
10,O=S(=O)(NCC(c1cccnc1)N1CCN(Cc2ccccc2)CC1)c1cc(F)ccc1F (stereo not shown),-69.1
11,CSCCC(NC(=O)c1ccccc1)C(=O)N1CC=C(c2ccccc2)CC1 (stereo not shown),6.4
12,COc1ccc(Nc2nnc(SCC(=O)/C=C3/N(C)c4ccccc4C3(C)C)s2)cc1,-2.46
13,CC(=O)c1c(C)[nH]c(C(=O)Nc2ccc(C)cc2Br)c1C,15.8
14,CCC(CC)N1CCN(CC2CC=CCC2)CC1.O=C(O)C(=O)O (stereo not shown),3.64
15,COc1cc(C2C3C(=O)N(c4ccccc4)C(=O)C3ON2c2ccccc2)cc(OC)c1OC (stereo not shown),-1.79
16,O=C(N/N=C/c1ccc(Br)o1)/C(=C/c1ccc([N+](=O)[O-])cc1)NC(=O)c1ccccc1,-60.1
17,Cc1cnccc1CN(C)C(=O)C1CCC(=O)N(Cc2ccccc2F)C1 (stereo not shown),-35.7
18,CCCN1CCN(C(=S)Nc2ccc(SC(F)F)cc2)CC1,-30.3
19,COC(=O)[C@]1(C)CCC[C@@]2(C)C3CC[C@@]4(C)C[C@]3(CC[C@H]12)C[C@H]4O (stereo partly shown),-0.194
20,CCOc1ccc(NC(=O)CSc2nnnn2CC(=O)O)cc1,10.6
21,C(=N\Nc1ccccn1)/c1c[nH]c2ccccc12,-9.5
22,O=C(c1ccco1)N(CCC(c1ccccc1)c1ccco1)Cc1ccco1 (stereo not shown),-17.8

row,SMILES,"hERG current change (%, negative = inhibition) at 10uM [%]"
1,Cc1ccc(C(=O)Nc2cccc(C(O)c3ccccc3)c2)cc1 (stereo not shown),2.87
2,O=C(O)c1ccc(/C=N/Nc2ccc(F)cc2F)cc1,14.6
3,Cc1ccc(N2C(=O)NC(NS(=O)(=O)c3ccccc3)(C(F)(F)F)C2=O)cc1 (stereo not shown),9.26
4,Cc1ccc(S(=O)(=O)N2CCCc3ccccc32)cc1C,0.165
5,COc1cccc(/C=C/C(=O)OCC(=O)NC(=O)NC2CCCCC2)c1,-2.47
6,CN1C(=O)Cc2cc(S(=O)(=O)N3CCN(c4ccccc4F)CC3)ccc21,-2.74
7,Cn1c(O)c(C=NCCc2c[nH]c3ccccc23)c(=O)n(C)c1=O,-0.616
8,CC(C)NC(=S)Nc1cccc2cnccc12,-10.7
9,CC(C)(C)CC(=O)Nc1ccc(Nc2ccccc2)cc1,3.84
10,CC(=NCCN1CCCCC1)c1c(O)n(-c2ccc(Cl)cc2)c(=O)[nH]c1=O,-0.221
11,CCOCCCNC(=O)C1CCC(CNS(=O)(=O)c2ccc(OC)cc2)CC1 (stereo not shown),6.01
12,COc1cc(N)c(Cl)cc1C(=O)NC1CN2CCC1CC2.Cl.O (stereo not shown),-11.1
13,O=C(NCc1ccccc1F)C1CCCN1S(=O)(=O)c1ccc(F)cc1 (stereo not shown),19
14,CCOc1cc(/C=C2\N=C(C)OC2=O)cc(Br)c1OCCc1ccccc1,16.7
15,CC(=O)c1cccc(N=Cc2c(O)c3ccccc3oc2=O)c1,9.35
16,c1nnc(NC2=NCCCCC2)s1,12.2
17,COC(=O)c1ccc(Cn2nnc3c(=O)[nH]c(C4CCCN(S(=O)(=O)c5ccc(C)cc5)C4)nc32)cc1 (stereo not shown),21.3
18,COc1ccc(C(=O)c2c3ccc([N+](=O)[O-])cc3[n+]([O-])n2CCC[NH3+])cc1.[Cl-],-47.4
19,Cc1cccc(N2CCN(C(=O)c3c(C)nn(Cc4ccccc4Cl)c3C)CC2)c1C,-0.851
20,CCn1c(-c2ccccc2Cl)nn(CC(=O)NCCc2ccccc2)c1=S,2.03
21,O=C(c1ccc([N+](=O)[O-])cc1)N(c1ccccn1)c1ccccn1,10.9
22,CCCCn1c(=O)c(C=Nc2ccc(Cl)cc2)c(O)n(Cc2ccco2)c1=O,-12.7

row,SMILES,"hERG current change (%, negative = inhibition) at 10uM [%]"
1,COc1ccc(/C=C/CN2CCCC(C(=O)c3ccc(OC)c(F)c3)C2)cc1 (stereo not shown),-94.5
2,COc1cccc(C(=O)N2CCN(Cc3nc(CC4CC4)no3)CC2)c1,-5.73
3,O=C(Nc1ccc(Cl)cn1)c1ccc2[nH]c(=O)c(=O)[nH]c2c1,16.9
4,CC(=O)N(C)c1ccc(NC(=S)Nc2ccccc2)cc1,13.8
5,Cc1nc2sc(C(=O)Nc3ccccc3Cc3ccccc3)c(C)c2c(=O)[nH]1,8.96
6,COc1cc(O)c(CCC(=O)c2cc(OC)c(OC)c(OC)c2)c(OC)c1,1.95
7,CCN(CC)c1ccc2c(Cl)c(Br)c(=O)oc2c1,7.17
8,CCCn1c(SCC(=O)N2c3ccccc3Sc3ccccc32)nc2ccccc21,22.5
9,O=C1CC(c2ccncc2)c2cc3c(cc2N1)OCCO3 (stereo not shown),2.23
10,O=C(NCC1CCCO1)c1ccc(/C=N/O)nc1 (stereo not shown),5.34
11,O=C(NC12CC3CC(CC(C3)C1)C2)c1ccc([N+](=O)[O-])o1,16.9
12,O=C(NN=C1C2CC3CC(C2)CC1C3)c1cccc(S(=O)(=O)N2CCOCC2)c1,0.586
13,COc1ccc(-c2cc(C(F)(F)F)nc(N)n2)cc1,11.9
14,COc1cccc(NC(=O)CSCc2cc(=O)n3nc(C4CC4)sc3n2)c1,18.4
15,S=c1[nH]nc(-c2ccc(Cl)cc2Cl)n1-c1ccc(Cl)cc1,18.6
16,COc1cccc(-c2nc(NCc3ccccc3)c3ccccc3n2)c1O,14.6
17,CC(C)C(=O)N1N=C(c2ccc(NS(C)(=O)=O)cc2)CC1c1cccs1 (stereo not shown),-68.7
18,CCCCOCCOCCOCCCC,13.4
19,Cc1c([N+](=O)[O-])c([N+](=O)[O-])nn1CC(=O)NCCc1ccccc1,13.2
20,CCOC(=O)c1[nH]c2ccccc2c1NC(=O)c1ccco1,0.716
21,Cc1ccc(Nc2nc(N)c3ccccc3n2)cc1C.Cl,-1.59
22,CC(C)Oc1ccc(CC2(CCc3ccncc3)C(=O)NC(=O)NC2=O)cc1,5.71

row,SMILES,"hERG current change (%, negative = inhibition) at 10uM [%]"
1,CCn1c(=O)c(=O)[nH]c2cc(C(=O)N3CCN(Cc4ccc5c(c4)OCO5)CC3)ccc21,22.4
2,CCNC(=O)c1ccc(NC(=O)CC2SC(N3CCCC3)=NC2=O)cc1 (stereo not shown),1.05
3,CCCOc1ccc(CNC(=O)C2CCN(c3nn4c(=O)cc(C)nc4s3)CC2)cc1,-21.3
4,O=C(Nc1ccc(Br)cc1)c1cccc(S(=O)(=O)Nc2ccccn2)c1,16
5,COc1ccc(-c2cn[nH]c2-c2ccc(OCC(=O)NN)cc2O)cc1,17.4
6,COc1ccc(CCNC(=O)CCn2c(=O)c3cccn3c3cccnc32)cc1OC,1.63
7,CC(C)(C)c1ccc(C(=O)NC(=S)NCc2ccco2)cc1,-3.98
8,O=C(NCc1ccc(-c2csnn2)cc1)C1CC1,7.09
9,O=C(CC(Nc1cccc(Cl)c1Cl)C(=O)OCC(=O)c1cccs1)c1ccccc1 (stereo not shown),-5.59
10,Cc1ccc(S(=O)(=O)N(C)Cc2cc3ccccc3[nH]c2=O)cc1,-15.7
11,CSc1ccc(/C=N\NC(=O)COc2ccc(Cl)cc2Br)cc1,-1.53
12,CSc1ccccc1C(=O)Nc1cc([N+](=O)[O-])ccc1C,-4.66
13,CNC(=O)c1nnc(Cc2ccc(Cl)cc2)o1,3.2
14,COC(=O)C1=C(c2ccc3ccccc3c2)C[C@@H]2CC[C@H]1N2C(=O)NCc1ccc(C(F)(F)F)cc1,16
15,O=C(Oc1ccc(-c2ccccc2)cc1)N1CCCCC1,-1.58
16,CCC1Oc2ccc(C)cc2N(CC(=O)NCc2cccs2)C1=O (stereo not shown),4.8
17,CC(=O)c1cc(-c2ccccc2)[nH]c1N1CCCC1,-5.68
18,CCc1ccccc1NC(=O)c1cc(-c2ccc(OC)cc2)on1,15
19,COc1ccc(CNC(=O)Nc2ccc3c(c2)N(C)C(=O)CS3)cc1,-0.138
20,COc1c(C(=O)Nc2nccs2)ccc2ccccc12,-22
21,COc1ccc(-c2csc(NC(=O)C(CC(=O)O)N3CCOCC3)n2)cc1 (stereo not shown),0.676
22,COc1cc(CC2COC(=O)C2(O)Cc2ccc(O)c(OC)c2)ccc1O (stereo not shown),7.65
